B1: Caulobacter ParB omega fusion; a variant is named by its letters at X, in order, B8GW30 (parent)
chain: MESVVVGEPGMSEGRRGLGRGLSALLGEVDAAPAQAPGEQLGGSREAPIEILQRNPDQPRRTFREEDLEDLSNSIREKGVLQPILVRPSPDTAGEYQIVAGERAWRAAQRAGLKTVPIMVRELDDLAVLEIGIIENVQRADLNVLEEALSYKVLMEKFERTQENIAQTIGKSXSHVANXMRLLXLPDEVQSYLVSGELTAXHARAIAAAADPVALAKQIIEGGLSVRETEALARKAPNLSAGKSKGGRPPRVKDTDTQALESDLSSVLGLDVSIDHRGSTGTLTITYATLEQLDDLCNRLTRGI

Here are results for 98 variants from a collection of fitness landscapes (doi:10.1016/j.celrep.2020.107928).

In all, about 81,000 sequences were measured (“one-hybrid fitness for binding NBS DNA”: median about -0.1, highest 2% from about 0.36 on). The list shows a part of the results. Some results are limits rather than exact numbers.

The variants in this experiment derive from B1. Description: one-hybrid fitness for binding NBS DNA (the Noc-binding site; scaled: cognate 1, non-cognate 0); higher = stronger binding. To be noted: with NBS DNA site. In outline: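 Selection: bacterial one-hybrid in E. coli USO, HIS3 reporter with the site 19 bp from the promoter, 48 hours at 37°C on M9-minus-histidine plus 0.1 mM IPTG and 5 mM 3-AT. Libraries were Caulobacter ParB with four randomised specificity codons, sequenced on Illumina before and after selection. Fitness is the rescaled log change in variant-to-wild-type read ratio, anchored to the cognate and non-cognate sites.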
For QNHV, the “one-hybrid fitness for binding NBS DNA” value was not above 0.2.
RVYN: the “one-hybrid fitness for binding NBS DNA” value is not above 0.2.
Regarding KSKT, the “one-hybrid fitness for binding NBS DNA” value was found to be 0.215.
The same measure for NDLS: not above 0.2; for WIYG: not above 0.2; for QIRM: 0.276.
For the variant AVPH, the “one-hybrid fitness for binding NBS DNA” value is not above 0.2.
FTHE: the “one-hybrid fitness for binding NBS DNA” value is not above 0.2.
Turning to YKVG, the “one-hybrid fitness for binding NBS DNA” value is not above 0.2.
As for HQKR, the “one-hybrid fitness for binding NBS DNA” value was not above 0.2.
The same measure for RLLS: 0.266; for QALC: not above 0.2.
The same measure for TDSE: not above 0.2.
As to YASF, the “one-hybrid fitness for binding NBS DNA” value is not above 0.2.
For HRCN, the “one-hybrid fitness for binding NBS DNA” value was not above 0.2.
The same measure for CAHY: not above 0.2; for NRCK: not above 0.2.
For the variant CPTI, the “one-hybrid fitness for binding NBS DNA” value is not above 0.2.
As for GNHE, the “one-hybrid fitness for binding NBS DNA” value was not above 0.2.
Turning to NSQI, the “one-hybrid fitness for binding NBS DNA” value is not above 0.2.
In the case of LVCS, the “one-hybrid fitness for binding NBS DNA” value is not above 0.2.
In the case of CRYT, the “one-hybrid fitness for binding NBS DNA” value was not above 0.2.
On to MQES, for which the “one-hybrid fitness for binding NBS DNA” value is not above 0.2.
The same measure for PWYP: not above 0.2.
The value for LVHV was not above 0.2; that for PYHT was not above 0.2; that for DPMR was not above 0.2.
Regarding AGNP, the “one-hybrid fitness for binding NBS DNA” value is not above 0.2.
Consider RRDH, for which the “one-hybrid fitness for binding NBS DNA” value is 0.371.
Regarding ITPA, the “one-hybrid fitness for binding NBS DNA” value is not above 0.2.
In the case of AGSI, the “one-hybrid fitness for binding NBS DNA” value is not above 0.2.
The same measure for MFLS: not above 0.2; for FVNW: not above 0.2.
As for SRNI, the “one-hybrid fitness for binding NBS DNA” value is not above 0.2.
On to AITI, for which the “one-hybrid fitness for binding NBS DNA” value is not above 0.2.
As for YDKR, the “one-hybrid fitness for binding NBS DNA” value was not above 0.2.
As to QRNG, the “one-hybrid fitness for binding NBS DNA” value is 0.381.
Consider RHKH, for which the “one-hybrid fitness for binding NBS DNA” value was 0.326.
Turning to SHIS, the “one-hybrid fitness for binding NBS DNA” value is not above 0.2.
KRII: the “one-hybrid fitness for binding NBS DNA” value was not above 0.2.
Turning to TFFR, the “one-hybrid fitness for binding NBS DNA” value was not above 0.2.
The value for VLIY was not above 0.2; that for DCLS was not above 0.2.
For the variant RYNR, the “one-hybrid fitness for binding NBS DNA” value amounted to 0.519.
On to ALGN, for which the “one-hybrid fitness for binding NBS DNA” value is not above 0.2.
The same measure for DSLD: not above 0.2.
Consider TLHP, for which the “one-hybrid fitness for binding NBS DNA” value is not above 0.2.
In the case of VPVQ, the “one-hybrid fitness for binding NBS DNA” value was not above 0.2.
For the variant LNIG, the “one-hybrid fitness for binding NBS DNA” value is not above 0.2.
As to LAES, the “one-hybrid fitness for binding NBS DNA” value was not above 0.2.
The same measure for VHAN: not above 0.2; for GYQN: not above 0.2.
Consider TLGL, for which the “one-hybrid fitness for binding NBS DNA” value was not above 0.2.
For the variant TGGK, the “one-hybrid fitness for binding NBS DNA” value is not above 0.2.
Consider PTIG, for which the “one-hybrid fitness for binding NBS DNA” value was not above 0.2.
Turning to QYLP, the “one-hybrid fitness for binding NBS DNA” value was not above 0.2.
HPSR: the “one-hybrid fitness for binding NBS DNA” value is not above 0.2.
As to PKEV, the “one-hybrid fitness for binding NBS DNA” value is not above 0.2.
In the case of RDTT, the “one-hybrid fitness for binding NBS DNA” value was not above 0.2.
In the case of RPDK, the “one-hybrid fitness for binding NBS DNA” value was not above 0.2.
The value for QYHM was not above 0.2.
As for CACS, the “one-hybrid fitness for binding NBS DNA” value is not above 0.2.
As for QAVL, the “one-hybrid fitness for binding NBS DNA” value is not above 0.2.
As for SNPE, the “one-hybrid fitness for binding NBS DNA” value was not above 0.2.
The value for MSVF was not above 0.2.
As to ATSI, the “one-hybrid fitness for binding NBS DNA” value was not above 0.2.
On to WQSY, for which the “one-hybrid fitness for binding NBS DNA” value is not above 0.2.
With MAQT, the “one-hybrid fitness for binding NBS DNA” value is not above 0.2.
The same measure for LKVT: not above 0.2; for MNYG: not above 0.2.
Consider CPSW, for which the “one-hybrid fitness for binding NBS DNA” value is not above 0.2.
QWVC: the “one-hybrid fitness for binding NBS DNA” value is not above 0.2.
With EERG, the “one-hybrid fitness for binding NBS DNA” value is not above 0.2.
On to IMIV, for which the “one-hybrid fitness for binding NBS DNA” value is not above 0.2.
The value for DRGN was not above 0.2; that for KREI was not above 0.2.
Take NLSD: the “one-hybrid fitness for binding NBS DNA” value is not above 0.2.
In the case of CTYL, the “one-hybrid fitness for binding NBS DNA” value was not above 0.2.
As to TTNL, the “one-hybrid fitness for binding NBS DNA” value was not above 0.2.
On to YKDD, for which the “one-hybrid fitness for binding NBS DNA” value was not above 0.2.
The same measure for VEAS: not above 0.2.
The same measure for MHQR: not above 0.2; for PAEG: not above 0.2; for CSRT: not above 0.2.
The same measure for PLHK: not above 0.2; for RYSC: not above 0.2.
For the variant ATLC, the “one-hybrid fitness for binding NBS DNA” value was not above 0.2.
For DQKR, the “one-hybrid fitness for binding NBS DNA” value is not above 0.2.
For WVHR, the “one-hybrid fitness for binding NBS DNA” value was not above 0.2.
For WTCR, the “one-hybrid fitness for binding NBS DNA” value is not above 0.2.
As for FLPQ, the “one-hybrid fitness for binding NBS DNA” value is not above 0.2.
Turning to PGFV, the “one-hybrid fitness for binding NBS DNA” value was not above 0.2.
As to CYAV, the “one-hybrid fitness for binding NBS DNA” value was not above 0.2.
KMPL: the “one-hybrid fitness for binding NBS DNA” value was not above 0.2.
In the case of TCKH, the “one-hybrid fitness for binding NBS DNA” value is not above 0.2.
Consider LPVN, for which the “one-hybrid fitness for binding NBS DNA” value is not above 0.2.
As to RTMT, the “one-hybrid fitness for binding NBS DNA” value came to 0.491.
For AANR, the “one-hybrid fitness for binding NBS DNA” value is not above 0.2.
